# The supplement of paper PMC8728848
# The other results are listed elsewhere or left out.
# B1: EPL1 (Trichoderma atroviride), A0PCX2 (protein)
# chain: MQLSNLFKLALFTAAVSADTVSYDTGYDDASRSLTVVSCSDGTNGLITRYHWQTQGQIPRFPYIGGAQAVAGWNSPNCGTCWKLTYSGKTIYVLAIDHTAAGFNIGLDAMNALTNGNAVALGRVSATASQVAVSNCGL
# Legend:
# Experiment in all cases: glycan array binding signal (z-score within array); higher = stronger binding
# Conditions in all cases: glycan notation: IUPAC condensed, linker removed
# [1] = biological target: GlcNAc(b1-3)Gal(b1-3)GalNAc
# Summary of the method: (§1)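 The Consortium for Functional Glycomics database supplied 3228 glycan arrays, of which those lacking an available protein sequence were dropped. The binding signal, a within-array Z-score, was averaged across arrays of the same protein sequence and across linkers. Negative scores can be read as non-binding.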
# GlcNAc(b1-3)Gal(b1-4)Glc = biological target: GlcNAc(b1-3)Gal(b1-4)Glc
# Summary of the method: as §1
# [2] = biological target: GlcNAc(b1-3)Gal(b1-4)GlcNAc
# Summary of the method: as §1
# [3] = biological target: GlcNAc(b1-3)Gal(b1-4)GlcNAc(b1-2)Man(a1-3)[GlcNAc(b1-3)Gal(b1-4)GlcNAc(b1-2)Man(a1-6)]Man(b1-4)GlcNAc(b1-4)GlcNAc
# Summary of the method: as §1
# [4] = biological target: GlcNAc(b1-3)Gal(b1-4)GlcNAc(b1-2)Man(a1-3)[GlcNAc(b1-3)Gal(b1-4)GlcNAc(b1-2)Man(a1-6)]Man(b1-4)GlcNAc(b1-4)[Fuc(a1-6)]GlcNAc
# Summary of the method: as §1
# [5] = biological target: GlcNAc(b1-3)Gal(b1-4)GlcNAc(b1-2)[GlcNAc(b1-3)Gal(b1-4)GlcNAc(b1-6)]Man(a1-6)[GlcNAc(b1-3)Gal(b1-4)GlcNAc(b1-2)Man(a1-3)]Man(b1-4)GlcNAc(b1-4)GlcNAc
# Summary of the method: as §1
# [6] = biological target: GlcNAc(b1-3)Gal(b1-4)GlcNAc(b1-3)Gal(b1-4)GlcNAc
# Summary of the method: as §1
# [7] = biological target: GlcNAc(b1-3)Gal(b1-4)GlcNAc(b1-3)Gal(b1-4)GlcNAc(b1-2)Man(a1-3)[GlcNAc(b1-3)Gal(b1-4)GlcNAc(b1-3)Gal(b1-4)GlcNAc(b1-2)Man(a1-6)]Man(b1-4)GlcNAc(b1-4)GlcNAc
# Summary of the method: as §1
# [8] = biological target: GlcNAc(b1-3)Gal(b1-4)GlcNAc(b1-3)Gal(b1-4)GlcNAc(b1-2)Man(a1-3)[GlcNAc(b1-3)Gal(b1-4)GlcNAc(b1-3)Gal(b1-4)GlcNAc(b1-2)Man(a1-6)]Man(b1-4)GlcNAc(b1-4)[Fuc(a1-6)]GlcNAc
# Summary of the method: as §1
# [9] = biological target: GlcNAc(b1-3)Gal(b1-4)GlcNAc(b1-3)Gal(b1-4)GlcNAc(b1-2)[GlcNAc(b1-3)Gal(b1-4)GlcNAc(b1-3)Gal(b1-4)GlcNAc(b1-6)]Man(a1-6)[GlcNAc(b1-3)Gal(b1-4)GlcNAc(b1-3)Gal(b1-4)GlcNAc(b1-2)Man(a1-3)]Man(b1-4)GlcNAc(b1-4)[Fuc(a1-6)]GlcNAc
# Summary of the method: as §1
# [10] = biological target: GlcNAc(b1-3)Gal(b1-4)GlcNAc(b1-3)Gal(b1-4)GlcNAc(b1-3)Gal(b1-4)GlcNAc(b1-2)Man(a1-3)[GlcNAc(b1-3)Gal(b1-4)GlcNAc(b1-3)Gal(b1-4)GlcNAc(b1-3)Gal(b1-4)GlcNAc(b1-2)Man(a1-6)]Man(b1-4)GlcNAc(b1-4)GlcNAc
# Summary of the method: as §1
# [11] = biological target: GlcNAc(b1-3)Gal(b1-4)GlcNAc(b1-3)Gal(b1-4)GlcNAc(b1-3)Gal(b1-4)GlcNAc(b1-2)Man(a1-3)[GlcNAc(b1-3)Gal(b1-4)GlcNAc(b1-3)Gal(b1-4)GlcNAc(b1-3)Gal(b1-4)GlcNAc(b1-2)Man(a1-6)]Man(b1-4)GlcNAc(b1-4)[Fuc(a1-6)]GlcNAc
# Summary of the method: as §1
# [12] = biological target: GlcNAc(b1-3)Gal(b1-4)GlcNAc(b1-3)Gal(b1-4)GlcNAc(b1-3)Gal(b1-4)GlcNAc(b1-2)[GlcNAc(b1-3)Gal(b1-4)GlcNAc(b1-3)Gal(b1-4)GlcNAc(b1-3)Gal(b1-4)GlcNAc(b1-6)]Man(a1-6)[GlcNAc(b1-3)Gal(b1-4)GlcNAc(b1-3)Gal(b1-4)GlcNAc(b1-3)Gal(b1-4)GlcNAc(b1-2)Man(a1-3)]Man(b1-4)GlcNAc(b1-4)[Fuc(a1-6)]GlcNAc
# Summary of the method: as §1
# [13] = biological target: GlcNAc(b1-3)Gal(b1-4)GlcNAc(b1-3)Gal(b1-4)GlcNAc(b1-3)Gal(b1-4)GlcNAc(b1-3)Gal(b1-4)GlcNAc(b1-2)Man(a1-3)[GlcNAc(b1-3)Gal(b1-4)GlcNAc(b1-3)Gal(b1-4)GlcNAc(b1-3)Gal(b1-4)GlcNAc(b1-3)Gal(b1-4)GlcNAc(b1-2)Man(a1-6)]Man(b1-4)GlcNAc(b1-4)GlcNAc
# Summary of the method: as §1
# [14] = biological target: GlcNAc(b1-3)Gal(b1-4)GlcNAc(b1-3)Gal(b1-4)GlcNAc(b1-3)Gal(b1-4)GlcNAc(b1-3)Gal(b1-4)GlcNAc(b1-2)Man(a1-3)[GlcNAc(b1-3)Gal(b1-4)GlcNAc(b1-3)Gal(b1-4)GlcNAc(b1-3)Gal(b1-4)GlcNAc(b1-3)Gal(b1-4)GlcNAc(b1-2)Man(a1-6)]Man(b1-4)GlcNAc(b1-4)[Fuc(a1-6)]GlcNAc
# Summary of the method: as §1
# [15] = biological target: GlcNAc(b1-3)Gal(b1-4)GlcNAc(b1-3)Gal(b1-4)GlcNAc(b1-3)Gal(b1-4)GlcNAc(b1-3)Gal(b1-4)GlcNAc(b1-2)[GlcNAc(b1-3)Gal(b1-4)GlcNAc(b1-3)Gal(b1-4)GlcNAc(b1-3)Gal(b1-4)GlcNAc(b1-3)Gal(b1-4)GlcNAc(b1-6)]Man(a1-6)[GlcNAc(b1-3)Gal(b1-4)GlcNAc(b1-3)Gal(b1-4)GlcNAc(b1-3)Gal(b1-4)GlcNAc(b1-3)Gal(b1-4)GlcNAc(b1-2)Man(a1-3)]Man(b1-4)GlcNAc(b1-4)[Fuc(a1-6)]GlcNAc
# Summary of the method: as §1
# [16] = biological target: GlcNAc(b1-3)Gal(b1-4)GlcNAc(b1-3)Gal(b1-4)GlcNAc(b1-3)GalNAc
# Summary of the method: as §1
# [17] = biological target: GlcNAc(b1-3)Gal(b1-4)GlcNAc(b1-3)GalNAc
# Summary of the method: as §1
# [18] = biological target: GlcNAc(b1-3)Gal(b1-4)GlcNAc(b1-3)[GlcNAc(b1-3)Gal(b1-4)GlcNAc(b1-3)]GalNAc
# Summary of the method: as §1
# [19] = biological target: GlcNAc(b1-3)Gal(b1-4)GlcNAc(b1-6)[Gal(b1-3)]GalNAc
# Summary of the method: as §1
# [20] = biological target: GlcNAc(b1-3)Gal(b1-4)GlcNAc(b1-6)[GlcNAc(b1-3)Gal(b1-3)]GalNAc
# Summary of the method: as §1
# [21] = biological target: GlcNAc(b1-3)Gal(b1-4)GlcNAc(b1-6)[GlcNAc(b1-3)]Gal(b1-4)GlcNAc
# Summary of the method: as §1
binder,measurement,setting,value
B1,glycan array binding signal (z-score),[1],-0.143
same,glycan array binding signal (z-score),GlcNAc(b1-3)Gal(b1-4)Glc,-0.465
same,glycan array binding signal (z-score),[2],-0.488
same,glycan array binding signal (z-score),[3],0.452
same,glycan array binding signal (z-score),[4],0.103
same,glycan array binding signal (z-score),[5],0.498
same,glycan array binding signal (z-score),[6],0.071
same,glycan array binding signal (z-score),[7],0.862
same,glycan array binding signal (z-score),[8],0.145
same,glycan array binding signal (z-score),[9],0.274
same,glycan array binding signal (z-score),[10],0.234
same,glycan array binding signal (z-score),[11],0.866
same,glycan array binding signal (z-score),[12],0.127
same,glycan array binding signal (z-score),[13],-0.389
same,glycan array binding signal (z-score),[14],-0.351
same,glycan array binding signal (z-score),[15],-0.382
same,glycan array binding signal (z-score),[16],-0.528
same,glycan array binding signal (z-score),[17],-0.37
same,glycan array binding signal (z-score),[18],-0.324
same,glycan array binding signal (z-score),[19],-0.043
same,glycan array binding signal (z-score),[20],-0.329
same,glycan array binding signal (z-score),[21],-0.15
